# Results published in PubChem BioAssay AID651820 (National Center for Advancing Translational Sciences (NCATS), 2012).
# About 12,000 (3.5%) of roughly 340,000 compounds were called active. This list was built around the results that the source calls inconclusive (neither active nor inactive); the mix of calls is not that of the screen. The call rests on the fitted dose curve; in most records, active means well fitted inhibition curve with a large enough effect; inconclusive means small, poorly fitted or top-dose-only effect, or another doubt; inactive means no such curve, though single readings can be large or run the other way. No potency is given beside an inconclusive call; the fits are too rough.
# Test: qHTS Assay for Inhibitors of Hepatitis C Virus (HCV)
# Conditions: Huh7.5.1 HCVcc-Cre (HCVcc is cell-culture hepatitis C virus) infection, luciferase reporter, 44 h; activity change, negative = inhibition: at 41.8 µM (top of the series) unless noted
# Method in brief: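 Antiviral activity was scored by luciferase reporter output from cells infected with HCVcc-Cre (~0.5 moi) in presence of compound, 44 h infection period, cells seeded 1,000/well 4 h prior.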
# On the % scale 0 is the no-effect control and ±100 the full control effect; potency means the concentration at half of the fitted maximal effect; tags describe the fitted curve by direction and shape.
SMILES,Potency,"activity change, negative = inhibition"
C=CCOc1c(Cl)cc(CNCCCN2CCOCC2)cc1OC,"inconclusive [inhibitor, full curve, poor fit]",–
CC1C(=O)N2CCCc3cc(NC(=O)C(=O)NCc4cccnc4)cc1c32 (centres undefined),–,inactive: 1.32%
C[C@H](NC(=O)c1[nH]cnc1C(=O)Nc1ccon1)c1ccccc1,active: 1.41 µM,–
O=C(CCS(=O)(=O)c1ccc(Br)cc1)N1CCN(c2ccccc2Cl)CC1,"inconclusive [inhibitor, single point]",–
CC(=O)N1CCN(C(=O)c2ccco2)CC1,–,inactive: 2.47%
Cc1ccc(CCNC(=O)C2CCN(C(=O)c3sccc3-n3cccc3)CC2)cc1,"inconclusive [inhibitor, partial curve]",–
COc1ccc(/C=N/Nc2nonc2N)c(OC)c1,"inconclusive [inhibitor, single point]",–
O=C(O)CC1NC(=S)N(c2ccccc2)C1=O (centres undefined),"inconclusive [inhibitor, single point]",–
Cc1ccc(-n2ncc3c(N4CCN(c5ccc(F)cc5)CC4)ncnc32)c(C)c1,"inconclusive [inhibitor, single point]",–
CCOC(=O)/C=C/C(=O)Nc1nccs1,–,inactive: -29.9%
COc1cccc(-c2c(-c3cc(OC)cc(OC)c3)n(C)c3ccc(-c4ccc5cc[nH]c5c4)cc23)c1,"inconclusive [inhibitor, partial curve]",–
NS(=O)(=O)c1ccc(CCNC(=O)COC(=O)c2nc(Cl)ccc2Cl)cc1,–,inactive: 16%
Cc1ccc(OCC(=O)NNc2c3ccccc3nc3ccccc23)cc1,active: 1 µM,–
O=C(Nc1ccccc1)NN(C(=O)CCl)c1ccccc1,"inconclusive [inhibitor, single point]",–
COC(=O)[C@H](C)N(Cc1ccc(Cl)c(Cl)c1)S(=O)(=O)CCNC1CCCC1,"inconclusive [inhibitor, single point]",–
OCCN1CCN(CCCN2c3ccccc3Sc3ccc(Cl)cc32)CC1,"inconclusive [inhibitor, partial curve]",–
COc1cccc(Oc2ccc3nnc(C(F)(F)F)n3n2)c1,"inconclusive [inhibitor, single point]",–
COc1ccc2nc(N/C(N)=N/C(=S)Nc3ccccc3)nc(C)c2c1,active: 11.2 µM,–
COc1ccc(C2CC(c3ccc(OC)c(OC)c3)=NN2C(=O)c2ccccc2)cc1 (centres undefined),"inconclusive [inhibitor, partial curve]",–
CN1CCC(N(C)C(=O)c2ccc(Cl)c(S(=O)(=O)N(C)c3ccc(Cl)cc3)c2)CC1,"inconclusive [inhibitor, partial curve]",–
COc1ccc(C(CNC(=O)COc2cc(C)c(Cl)c(C)c2)N2CCCCC2)cc1 (centres undefined),"inconclusive [inhibitor, single point]",–
O=C(COC(=O)c1ccncc1)Nc1cccc(Cl)c1,–,inactive: 16.5%

SMILES,Potency,"activity change, negative = inhibition"
CC(C)C(C(=O)NC1=NCCS1)c1ccc(Cl)cc1 (centres undefined),"inconclusive [inhibitor, single point]",–
COc1ccc(-c2nc3oc4cc(OC)ccc4c(=O)c3c(=O)n2Cc2ccco2)cc1,"inconclusive [inhibitor, single point]",–
Oc1cccc(Nc2nc(O)c(/C=C3\C=Nc4ccccc43)s2)c1,"inconclusive [inhibitor, single point]",–
OCCC1CN(Cc2ccc3nsnc3c2)CCN1CCc1ccccc1 (centres undefined),–,inactive: -11.2%
Cc1ccc(-c2cc(-c3ccc(C)cc3)[n+](-c3ccccc3)c(-c3ccc(C)cc3)c2)cc1,active: 25.1 µM,–
COc1ccc(C(=O)Nc2ccc(Cn3ccnc3)cc2)cc1OC,"inconclusive [inhibitor, partial curve]",–
S=c1ncc2[nH]c(=S)[nH]c2[nH]1,"inconclusive [inhibitor, single point]",–
COc1ccc(OCCOC(=O)c2[nH]c(C)c(C(C)=O)c2C)cc1,"inconclusive [inhibitor, partial curve]",–
COc1ccc(S(=O)(=O)N2CCCOC2CNC(=O)C(=O)NCCc2ccco2)cc1C (centres undefined),–,inactive: -26%
CC(C)(C)c1ccc(OCc2ccc(C(=O)N/N=C3\CC4CC=CC34)cc2)cc1 (centres undefined),"inconclusive [inhibitor, single point]",–
Cc1ccc(NC(=O)CCN2CCN(C/C=C/c3ccccc3)CC2)cc1,"inconclusive [inhibitor, partial curve]",–
C/C(=C\C(=O)c1ccc(Cl)cc1)Nc1ccc(Br)cc1,"inconclusive [inhibitor, single point]",–
C(#Cc1ccccc1)C[N+]1(CC#Cc2cccc3ccccc23)CCCC1,"inconclusive [inhibitor, single point]",–
O=C(/C=C/c1ccc([N+](=O)[O-])cc1)N1CCN(S(=O)(=O)c2cccs2)CC1,–,inactive: 9.55%
CC1(C(=O)N2CCC(CC3CC(c4ccc(Cl)cc4)=NO3)(C(=O)NCC3CCCCC3)CC2)CC1 (centres undefined),"inconclusive [inhibitor, full curve, poor fit]",–
C=C[C@]1(C)C=C2CCC3[C@](C)(CCC[C@@]3(C)C(=O)O)C2CC1 (some centres undefined),active: 2.24 µM,–
CCn1c2ccccc2c2cc(NC(=O)C(C)OC(=O)c3ccc(NC(=O)CC#N)cc3)ccc21 (centres undefined),"inconclusive [inhibitor, partial curve]",–
O=C(CNC1=NCCC1)c1ccc2c(c1)OCCO2,"inconclusive [inhibitor, single point]",–
C/C(=N\NC(=O)c1ccc(NS(=O)(=O)c2cccs2)cc1)c1ccc(O)cc1O,–,inactive: -18.9%
CN1CCN(C(=O)c2ccccc2NC(=O)c2ccc(C(C)(C)C)cc2)CC1,–,inactive: 19.3%
CC1CCN(CCCNC(=O)c2ccc3c(=O)n(Cc4ccc(Cl)cc4)c(=S)[nH]c3c2)CC1,"inconclusive [inhibitor, partial curve, poor fit]",–
Cc1nc(C(=O)Nc2ccccc2)sc1C(=O)Nc1ccccc1,"inconclusive [inhibitor, partial curve]",–
